# Experimental data reported in the supplement of paper PMC8728848.
# The list shows a part of the results.
# B1: Pbx2 (Cryptococcus neoformans) (protein)
# chain: AVSPLPSSTELVFYSQKRRRRRICSTATGSLSTPDPTRMTSDPYKRVGMRFSSVPRLLITFLSLLLLVSAAPPCVRFADYDSINQMFIDGGPGTKVLLCPNRLYRLSGPIIFTAADQEIATYGYPTGSERAVLRVEGRNTATAIQGDCRRCARVSVKNLVVDGNRKKLGRMRDFQLATGLVVLGGNEGQSIQNSWIKNPRGFTAIHIREGDKLQCSGARVEKNEIGPVGEEYDPEKDGDDPEMSPLGRPLADGVSIACRDSFIRDNTFRDNTDAAIVVYCSPGTLIHANHIFAQSLSAMAGILMVDSTPFNGDYTGTVVRSNIIDAVSRTIRVGIGIGPTVWSDDTETILTGGSVIGNGLKGRYMGYGIAAAGLKQWTIKDNWDEAKHEGRKSARCFDEPVNPDPIGLLYNRPTMEDCTVQSGFADHDFQYLVCIDGLYDKTNPPKHDPAPLAHDPSPTNAQEDNTVQQDGGDSKSKSIEQPREASDIEAEPSVEKMFSTGSEMMDDVLEHSHQRMHEVIDHLSRRIDILGAASAGKGSGDSKISEVLDPAMSSHLEKLQRKIEHLEFSLRSQIETAIQLRSAIQGWDQEMALVTDWEYDILLDVRHKLELSSYPHDQPLDPRLMRGQSYLNNEAVLVDDHSHPSLEGENLRAMSDRARLNANEEA
# Columns and labels:
# Test in all cases: glycan array binding signal (z-score within array); higher = stronger binding
# Conditions in all cases: glycan notation: IUPAC condensed, linker removed
# Neu5Ac(a2-8)Neu5Ac = biological target: Neu5Ac(a2-8)Neu5Ac
# Method in brief: (§1)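 Glycan array data were curated from 3228 arrays in the Consortium for Functional Glycomics database and kept only where the protein sequence was available. Glycan names were converted to IUPAC-condensed notation, and columns mapping to the same glycan were averaged. The binding signal is a within-array Z-score, averaged across arrays of the same protein sequence at different concentrations or buffers and across linkers. Negative Z-scores can be read as non-binding.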
# [1] = biological target: Neu5Ac(a2-8)Neu5Ac(a2-3)Gal(b1-3)GalNAc(b1-4)[Neu5Ac(a2-3)]Gal(b1-4)Glc
# Method in brief: as §1
# [2] = biological target: Neu5Ac(a2-8)Neu5Ac(a2-3)Gal(b1-3)GalNAc(b1-4)[Neu5Ac(a2-8)Neu5Ac(a2-3)]Gal(b1-4)Glc
# Method in brief: as §1
# [3] = biological target: Neu5Ac(a2-8)Neu5Ac(a2-3)Gal(b1-4)Glc
# Method in brief: as §1
# [4] = biological target: Neu5Ac(a2-8)Neu5Ac(a2-3)Gal(b1-4)GlcNAc
# Method in brief: as §1
# [5] = biological target: Neu5Ac(a2-8)Neu5Ac(a2-3)[Gal(b1-3)GalNAc(b1-4)]Gal(b1-4)Glc
# Method in brief: as §1
# [6] = biological target: Neu5Ac(a2-8)Neu5Ac(a2-3)[GalNAc(b1-4)]Gal(b1-4)Glc
# Method in brief: as §1
# [7] = biological target: Neu5Ac(a2-8)Neu5Ac(a2-8)Neu5Ac
# Method in brief: as §1
# [8] = biological target: Neu5Ac(a2-8)Neu5Ac(a2-8)Neu5Ac(a2-3)Gal(b1-4)Glc
# Method in brief: as §1
# [9] = biological target: Neu5Ac(a2-8)Neu5Ac(a2-8)Neu5Ac(a2-3)[Gal(b1-3)GalNAc(b1-4)]Gal(b1-4)Glc
# Method in brief: as §1
# [10] = biological target: Neu5Ac(a2-8)Neu5Ac(a2-8)Neu5Ac(a2-3)[GalNAc(b1-4)]Gal(b1-4)Glc
# Method in brief: as §1
# [11] = biological target: Neu5Ac(a2-8)Neu5Ac(a2-8)Neu5Ac(a2-8)Neu5Ac(a2-3)[GalNAc(b1-4)]Gal(b1-4)Glc
# Method in brief: as §1
# [12] = biological target: Neu5Ac(a2-8)Neu5Gc(a2-3)Gal(b1-4)GlcNAc
# Method in brief: as §1
# [13] = biological target: Neu5Ac(b2-6)Gal(b1-4)GlcNAc
# Method in brief: as §1
# Neu5Ac(b2-6)GalNAc = biological target: Neu5Ac(b2-6)GalNAc
# Method in brief: as §1
# [14] = biological target: Neu5Ac9Ac(a2-3)Gal(b1-4)GlcNAc
# Method in brief: as §1
# [15] = biological target: Neu5Ac9Ac(a2-6)Gal(b1-4)GlcNAc
# Method in brief: as §1
# [16] = biological target: Neu5Gc(a2-3)Gal(b1-3)GlcNAc
# Method in brief: as §1
# [17] = biological target: Neu5Gc(a2-3)Gal(b1-3)[Fuc(a1-4)]GlcNAc
# Method in brief: as §1
# Neu5Gc(a2-3)Gal(b1-4)Glc = biological target: Neu5Gc(a2-3)Gal(b1-4)Glc
# Method in brief: as §1
# [18] = biological target: Neu5Gc(a2-3)Gal(b1-4)GlcNAc
# Method in brief: as §1
# [19] = biological target: Neu5Gc(a2-3)Gal(b1-4)GlcNAc(b1-3)Gal(b1-4)GlcNAc(b1-2)Man(a1-3)[Neu5Gc(a2-3)Gal(b1-4)GlcNAc(b1-3)Gal(b1-4)GlcNAc(b1-2)Man(a1-6)]Man(b1-4)GlcNAc(b1-4)GlcNAc
# Method in brief: as §1
# [20] = biological target: Neu5Gc(a2-3)Gal(b1-4)[Fuc(a1-3)]GlcNAc
# Method in brief: as §1
# [21] = biological target: Neu5Gc(a2-6)Gal(b1-4)GlcNAc
# Method in brief: as §1
# Neu5Gc(a2-6)GalNAc = biological target: Neu5Gc(a2-6)GalNAc
# Method in brief: as §1
# [22] = biological target: Neu5Gc(a2-8)Neu5Ac(a2-3)Gal(b1-4)GlcNAc
# Method in brief: as §1
# [23] = biological target: Neu5Gc(a2-8)Neu5Gc(a2-3)Gal(b1-4)GlcNAc
# Method in brief: as §1
# [24] = biological target: Neu5Gc(a2-8)Neu5Gc(a2-3)Gal(b1-4)GlcNAc(b1-3)Gal(b1-4)GlcNAc
# Method in brief: as §1
# [25] = biological target: Neu5Gc(a2-8)Neu5Gc(a2-6)Gal(b1-4)GlcNAc
# Method in brief: as §1
# [26] = biological target: Neu5Gc(b2-6)Gal(b1-4)GlcNAc
# Method in brief: as §1
binder,measurement,setting,value
B1,glycan array binding signal (z-score),Neu5Ac(a2-8)Neu5Ac,-0.332
same,glycan array binding signal (z-score),[1],-0.583
same,glycan array binding signal (z-score),[2],0.024
same,glycan array binding signal (z-score),[3],-0.602
same,glycan array binding signal (z-score),[4],-0.348
same,glycan array binding signal (z-score),[5],0.256
same,glycan array binding signal (z-score),[6],-0.131
same,glycan array binding signal (z-score),[7],-0.256
same,glycan array binding signal (z-score),[8],-0.428
same,glycan array binding signal (z-score),[9],-0.715
same,glycan array binding signal (z-score),[10],0.212
same,glycan array binding signal (z-score),[11],-0.399
same,glycan array binding signal (z-score),[12],-0.248
same,glycan array binding signal (z-score),[13],-0.406
same,glycan array binding signal (z-score),Neu5Ac(b2-6)GalNAc,-0.522
same,glycan array binding signal (z-score),[14],0.189
same,glycan array binding signal (z-score),[15],-0.631
same,glycan array binding signal (z-score),[16],-0.243
same,glycan array binding signal (z-score),[17],-0.266
same,glycan array binding signal (z-score),Neu5Gc(a2-3)Gal(b1-4)Glc,-0.241
same,glycan array binding signal (z-score),[18],-0.329
same,glycan array binding signal (z-score),[19],-0.362
same,glycan array binding signal (z-score),[20],-0.117
same,glycan array binding signal (z-score),[21],-0.317
same,glycan array binding signal (z-score),Neu5Gc(a2-6)GalNAc,-0.472
same,glycan array binding signal (z-score),[22],0.079
same,glycan array binding signal (z-score),[23],-0.028
same,glycan array binding signal (z-score),[24],-0.158
same,glycan array binding signal (z-score),[25],-0.088
same,glycan array binding signal (z-score),[26],-0.43
